Reference: US20250214977A1, “STAT6 INHIBITORS AND USES THEREOF” (Kymera Therapeutics, Inc., priority 2024, published 2025)

Target: T1, biotinylated truncated STAT6 (123-632)-avi (Homo sapiens, UniProt P42226)
T1 sequence (P42226 123-632 limits assumed): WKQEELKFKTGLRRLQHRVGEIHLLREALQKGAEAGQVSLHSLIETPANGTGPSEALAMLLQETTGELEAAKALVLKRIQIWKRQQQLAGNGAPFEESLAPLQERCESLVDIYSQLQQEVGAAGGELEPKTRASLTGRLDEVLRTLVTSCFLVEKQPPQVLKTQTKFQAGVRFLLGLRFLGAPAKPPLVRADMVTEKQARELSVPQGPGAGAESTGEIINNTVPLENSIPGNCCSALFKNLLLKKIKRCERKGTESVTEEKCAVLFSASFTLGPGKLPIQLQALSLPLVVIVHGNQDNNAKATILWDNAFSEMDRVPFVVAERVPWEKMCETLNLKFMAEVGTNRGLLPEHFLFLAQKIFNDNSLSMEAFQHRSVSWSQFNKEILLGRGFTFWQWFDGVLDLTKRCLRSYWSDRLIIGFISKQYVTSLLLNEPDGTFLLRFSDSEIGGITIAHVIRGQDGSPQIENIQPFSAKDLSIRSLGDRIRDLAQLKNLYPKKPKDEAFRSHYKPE
Test: Homogenous Time-Resolved Fluorescence (HTRF) binding assay
Conditions: 0.15 nM biotinylated truncated STAT6 (123-632)-avi, 20 nM fluorescein-labeled probe

Row | Structure (SMILES) | IC50 (30 minutes at room temperature) [nM] | IC50 (30 minutes room temperature) [nM]
1 | CCc1cc(C)ncc1-c1cc(C2=CCCN(C(=O)CCc3nccs3)C2)c(F)c2[nH]c(C(=O)N3Cc4cnn(CC)c4C3)cc12 [Example I-538] | < 100 | –
2 | O=C(CCn1ccnn1)N1CCC=C(c2ccc3oc(C4=CCCC4)cc3c2)C1 [Example I-1281] | – | 10000 to 100000
3 | CCOc1cc(-c2cc(C3=CCCN(C(=O)CCn4ccnn4)C3)c(F)c3[nH]c(C(=O)N4CCN(c5ncc(F)cc5OC)CC4)cc23)cc(F)c1F [Example I-642] | 100 to 1000 | –
4 | CC(=O)N(C)c1ccc2c(ccn2C2CCCN(C(=O)CCn3ccnn3)C2)c1 (centres unmarked) [Example I-1300] | – | 10000 to 100000
5 | COc1ccccc1-c1cc(C2=CCCN(C(=O)CCn3ccnn3)C2)c(F)c2[nH]c(C(=O)N3CC(C(F)(F)F)C3)cc12 [Example I-1375] | – | 100 to 1000
6 | CCSc1ccccc1-c1cc(C2=CCCN(C(=O)CCn3ccnn3)C2)c(F)c2[nH]c(C(=O)N3CCN(c4ncc(F)cc4OC)CC3)cc12 [Example I-679] | < 100 | –
7 | COc1ccccc1-c1cc(C2=CCCN(C(=O)CCn3ccnn3)C2)c(F)c2[nH]c(C(=O)N3CCC(N(C)C4CC4)C3)cc12 (centres unmarked) [Example I-898] | < 100 | –
8 | CCc1cc(C)ncc1-c1cc(C(=O)N2CCN(c3ncc(F)cc3OC)CC2)cc2cc(C3=CCCN(C(=O)CCn4ccnn4)C3)n(CC3CC3)c12 [Example I-533] | < 100 | –
9 | COc1ccc(F)cc1-c1cc(C2=CCCN(C(=O)CCn3ccnn3)C2)c(F)c2[nH]c(C(=O)N3CCN(c4ccccc4OC)CC3)cc12 [Example I-566] | < 100 | –
10 | CNc1ccc(-c2cc(C3=CCCN(C(C)=O)C3)c(F)c3[nH]c(C(=O)N(C)C)cc23)c(OC)c1 [Example I-1092] | < 100 | –
11 | COc1cc(F)cnc1N1CCN(C(=O)c2cc3c(-c4cncc(OC(C)C)c4)cc(C4=CCCN(C(=O)CCn5ccnn5)C4)c(F)c3[nH]2)CC1 [Example I-655] | < 100 | –
12 | COc1cccnc1N1CCN(C(=O)c2cc3c(N4CCN(C)CC4)cc(C4=CCCN(C(=O)CCn5ccnn5)C4)c(F)c3[nH]2)CC1 [Example I-557] | < 100 | –
13 | COc1ccccc1-c1cc(C2=CCCN(C(=O)CCn3ccnn3)C2)c(F)c2[nH]c(C(=O)N3CCN(c4cccn5cnnc45)CC3)cc12 [Example I-1206] | < 100 | –
14 | COC(=O)[C@H]1CC[C@H](c2ccc3oc(C(=O)N(C)C)cc3c2)CN1C(=O)CCn1ccnn1 (single isomer, unassigned) [Example I-152] | 1000 to 10000 | –
15 | Cc1cc(CNc2cc(C3=CCCN(C(=O)CCn4ccnn4)C3)cc3cc(C(=O)N(C)C)oc23)n(C)n1 [Example I-894] | 100 to 1000 | –
16 | CC(=O)N1CCC(c2cccc3c2CC(C(=O)N2CCC=C(c4ccc5oc(C(=O)N(C)C)cc5c4)C2)N(C=O)C3)CC1 (centres unmarked) [Example I-180] | 10000 to 100000 | –
17 | O=C(CCn1ccnn1)N1CCC=C(c2ccc3oc(C(=O)N4CCCC45CC5)cc3c2)C1 [Example I-1610] | – | 1000 to 10000
18 | CN(C)C(=O)c1cc2cc([C@@H]3CN(C(=O)CCn4ccnn4)CC[C@H]3O)ccc2o1 (single isomer, unassigned) [Example I-209] | 10000 to 100000 | –
19 | CN(C)C(=O)c1cc2cc(C3=CCCN(C(=O)CCc4cccnc4)C3)ccc2o1 [Example I-301] | 1000 to 10000 | –
20 | COc1cc(F)cnc1N1CCN(C(=O)c2cc3c(-c4cc(C)nc5ccccc45)cc(C4=CCCN(C(=O)CCn5ccnn5)C4)c(F)c3[nH]2)CC1 [Example I-630] | < 100 | –
21 | CNC(=O)C1CCN(C(=O)c2cc3c(-c4ccccc4OC)cc(C4=CCCN(C(=O)CCn5ccnn5)C4)c(F)c3[nH]2)CC1 [Example I-1416] | – | < 100
22 | COc1ccccc1-c1cc(C2=CCCN(C(=O)CCn3ccnn3)C2)c(F)c2[nH]c(C(=O)N3CCN(c4nccc5cnccc45)CC3)cc12 [Example I-362] | < 100 | –

Row | Structure (SMILES) | IC50 (30 minutes at room temperature) [nM] | IC50 (30 minutes room temperature) [nM]
23 | CCc1ccncc1-c1cc(C2=CCCN(C(=O)CCn3ccnn3)C2)c(F)c2[nH]c(C(=O)N3CCN(c4ncc(Cl)cc4OC)CC3)cc12 [Example I-472] | < 100 | –
24 | CN(C)C(=O)c1cc2cc(C3=CCCN(C(=O)Cc4cnccn4)C3)ccc2o1 [Example I-246] | 10000 to 100000 | –
25 | CC(=O)N1CCC(c2cc(C3=CCCN(C(=O)CCn4ccnn4)C3)cc3cc(C(=O)N(C)C)oc23)CC1 [Example I-190] | < 100 | –
26 | COc1ccccc1-c1cc(C2=CCCN(C(=O)CCn3ccnn3)C2)c(F)c2[nH]c(C(=O)N3CCN(c4ncccc4OC(F)F)CC3)cc12 [Example I-358] | < 100 | –
27 | COc1ccccc1-c1cc(C2=CCCN(C(=O)CCn3ccnn3)C2)c(F)c2[nH]c(C(=O)N3CCN(c4cnc(SC)n5cnnc45)CC3)cc12 [Example I-910] | < 100 | –
28 | CCc1cnccc1-c1cc(C(=O)N2CCN(c3ncc(F)cc3OC)CC2)cc2cc(C3=CCCN(C(=O)CCn4ccnn4)C3)n(CC3CC3)c12 [Example I-542] | > 100000 | –
29 | COc1ccccc1-c1cc(C2=CCCN(C(=O)CCn3ccnn3)C2)c(F)c2[nH]c(C(=O)N3CCN(c4ccccc4C(F)(F)F)CC3)cc12 [Example I-968] | 100 to 1000 | –
30 | CCc1cc(C)ncc1-c1cc(C2=CCCN(C(=O)CCn3ccnn3)C2)c(F)c2[nH]c(C(=O)N3CCN(c4nc(C)c(F)cc4OC)CC3)cc12 [Example I-737] | < 100 | –
31 | COc1ccncc1-c1cc(C2=CCCN(C(=O)CCn3cccn3)C2)c(F)c2[nH]c(C(=O)N3CCN(c4ncc(F)cc4OC)CC3)cc12 [Example I-664] | < 100 | –
32 | CCc1nc(C)ccc1-c1cc(C(=O)N2Cc3cnn(CC)c3C2)cc2c(F)c(C3=CCCN(C(=O)CCn4ccnn4)C3)n(CC3CC3)c12 [Example I-1219] | – | > 100000
33 | COc1ccccc1-c1cc(C2=CCCN(C(=O)CCn3ccnn3)C2)c(F)c2[nH]c(C(=O)N3CCN(c4cnccc4OC)CC3)cc12 [Example I-465] | > 100000 | –
34 | CN(C)C(=O)c1cc2ccc(C3=CCCN(C(=O)CCCn4c(=O)[nH]c5ccccc54)C3)cc2[nH]1 [Example I-85] | 10000 to 100000 | –
35 | COc1ccccc1-c1cc(C2=CCCN(C(=O)CCn3ccnn3)C2)c(F)c2[nH]c(C(=O)N3CCN(c4ccc(F)c(F)c4F)CC3)cc12 [Example I-769] | < 100 | –
36 | COc1cc(C(F)(F)F)cnc1N1CCN(C(=O)c2cc3c(-c4cnc5ccccc5c4OC)cc(C4=CCCN(C(=O)CCn5ccnn5)C4)c(F)c3[nH]2)CC1 [Example I-446] | 1000 to 10000 | –
37 | CCS(=O)(=O)c1ccc(N2CCN(C(=O)c3cc4c(-c5ccccc5OC)cc(C5=CCCN(C(=O)CCn6ccnn6)C5)c(F)c4[nH]3)CC2)nc1 [Example I-1442] | – | < 100
38 | COc1ccccc1-c1cc(C2=CCCN(C(=O)CCn3ccnn3)C2)c(F)c2[nH]c(C(=O)N3CC4(CC(C)C4)C3)cc12 [Example I-1393] | – | 100 to 1000
39 | COc1ccccc1-c1cc(C2=CCCN(C(=O)CCn3ccnn3)C2)c(F)c2[nH]c(C(=O)N3CCN(c4nc5ccccc5n4CC4CC4)CC3)cc12 [Example I-943] | < 100 | –
40 | CNc1ccc(-c2cc(C3=CCCN(C(=O)CCn4ccnn4)C3)c(F)c3[nH]c(C(=O)N(C)C)cc23)c(OC)c1 [Example I-1059] | < 100 | –
41 | CN(C)C(=O)c1cc2c(-c3ccccc3)cc(C3=CCCN(C(=O)CCn4ccnn4)C3)cc2[nH]1 [Example I-1678] | – | < 100
42 | CN(C)C(=O)c1nc2cc(C3=CCCN(C(=O)CCn4ccnn4)C3)ccc2o1 [Example I-1319] | – | 10000 to 100000
43 | CC(=O)N1CCC=C(c2cc(-c3ccccc3OC(F)F)c3cc(C(=O)N(C)C)[nH]c3c2F)C1 [Example I-1581] | – | < 100
44 | COc1ccccc1-c1cc(C2=CCCN(C(=O)CCn3ccnn3)C2)c(F)c2[nH]c(C(=O)N3CCc4cnn(C)c4C3)cc12 [Example I-516] | < 100 | –
